What was measured:
[1] = molecular target: T1, human PSMA (in house produced) (human, UniProt Q04609 44-750, limits assumed); assay: ELISA, pH 6.0 and pH 7.4
T1 construct: Biotinylated

[2] = molecular target: T2, human FcRn: extracellular domain of human αFcRn in complex with human β2-microglobulin, soluble, produced in … (human, UniProt P55899 24-290; P16213 21-119); assay: ELISA, Z-ABD captured on anti-ABD, biotinylated human FcRn titrated, pH 7.4
T2 construct: Ig kappa leader cleaved upon secretion; Biotinylated for ELISA, amine coupled for Biacore; also called hFcRn; not shown: C-terminal GS-linker and FLAG tag; C-terminal GS-linker and His6 tag
Experimental: (§1) After washing as described above, 50 μl ImmunoPure TMB substrate (Thermo Scientific, cat. no. 34021) was added to the wells and the plates were treated according to the manufacturer's recommendations.

[3] = molecular target: T2, human FcRn: extracellular domain of …; assay: ELISA, Z-ABD captured on anti-ABD, biotinylated human FcRn titrated, pH 6.0
Experimental: as §1

[4] = molecular target: T2, human FcRn: extracellular domain of …; assay: Biacore, human FcRn immobilized, pH 6.0, fusion to PP013-Z03638
[5] = molecular target: T3, mouse FcRn, soluble, produced in mouse 3T3 cells (mouse, UniProt Q61559 22-290; P01887 21-119); assay: Biacore 3000, mFcRn immobilized, one site saturation, pH 6.0
T3 construct: also called mFcRn; murine FcRn
T3 sequence: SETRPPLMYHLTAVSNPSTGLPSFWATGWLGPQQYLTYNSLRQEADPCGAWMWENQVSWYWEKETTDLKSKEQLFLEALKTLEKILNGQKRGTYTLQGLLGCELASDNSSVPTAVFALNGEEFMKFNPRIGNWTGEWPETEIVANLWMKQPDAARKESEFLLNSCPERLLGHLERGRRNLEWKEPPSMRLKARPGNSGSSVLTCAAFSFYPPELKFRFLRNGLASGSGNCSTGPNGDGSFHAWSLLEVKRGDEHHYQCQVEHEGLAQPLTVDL
T3 sequence (b2m): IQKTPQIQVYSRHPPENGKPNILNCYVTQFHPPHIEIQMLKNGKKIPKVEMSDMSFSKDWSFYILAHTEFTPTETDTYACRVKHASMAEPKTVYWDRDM
Experimental: (§2) In a separate experiment, the affinity of the interactions of Z variants to hFcRn (SEQ ID NO:1065) and mFcRn (SEQ ID NO:1070), respectively, was measured at both pH 6.0 and pH 7.4 on a Biacore 3000 instrument (GE Healthcare). hFcRn and mFcRn were produced essentially as described in Example 1 but using mouse 3T3 cells instead of human SKOV-3 cells for production of mFcRn, and immobilized on separate flow cells on a CM5 chip in acetate buffer at pH 4.65. The immobilization level was approximately 1000 RU for both receptors. A reference flow cell was created by activation and deactivation. 0.005% PCT pH 6.0 or 7.4 was used as running buffer and for dilution of the analytes. All analyses were performed at 25° C. […] The affinities were derived using GraphPad Prism 5 software, using a one site binding saturation model.

[6] = molecular target: T2, human FcRn: extracellular domain of …; assay: Biacore, human FcRn immobilized, pH 6.0, Langmuir 1:1
Experimental: (§3) One flow cell surface on the chip was activated and deactivated for use as blank during analyte injections.
Kinetic constants were calculated from the sensorgrams using the Langmuir 1:1 model of BiaEvaluation software 4.1 (GE Healthcare).

[7] = molecular target: T3, mouse FcRn, soluble, produced in mouse …; assay: Biacore 3000, mFcRn immobilized, one site saturation, pH 7.4
Experimental: as §2

[8] = molecular target: T4, human FcRn (Biorbyt, cat. no. orb84388) (human, UniProt P55899 24-297; P61769 21-119, limits assumed); assay: AlphaLISA blocking of IgG (Roactemra) binding to biotinylated human FcRn, pH 6.0
T4 construct: Bought protein; Biotinylated in AlphaLISA and ELISA; also called biotinylated human FcRn
Experimental: Stepwise serial dilutions 1:3 of His-tagged Z variants to final concentrations of 250 nM to 38 pM were made in a 384-well plate (Perkin Elmer, cat. no. G6005350) and incubated for 45 min with 10 nM biotinylated human FcRn (Biorbyt, cat. no. orb84388; biotinylated essentially as described in Example 2) in AlphaLISA buffer (Perkin Elmer, cat. no. AL000F) adjusted to pH 6.0 using HCl. IgG-coated Acceptor beads were added to a final concentration of 10 μM and incubated for 45 min. Finally, streptavidin coated Donor beads (Perkin Elmer, cat. no. 6772002) were added to a final concentration of 40 μg/ml and incubated for 30 min. All incubations were performed at RT in the dark. The plate was analyzed in the EnSpire instrument and the IC50 values were calculated using GraphPad Prism 5.

[9] = molecular target: T4, human FcRn (Biorbyt, cat. no. orb84388); assay: Biacore, human FcRn (Biorbyt) immobilized, pH 6.0
Excerpt: as §3

[10] = molecular target: T2, human FcRn: extracellular domain of …; assay: Biacore, human FcRn immobilized, 250 nM, pH 6.0
Excerpt: as §3

T1 sequence (Q04609 44-750 limits assumed): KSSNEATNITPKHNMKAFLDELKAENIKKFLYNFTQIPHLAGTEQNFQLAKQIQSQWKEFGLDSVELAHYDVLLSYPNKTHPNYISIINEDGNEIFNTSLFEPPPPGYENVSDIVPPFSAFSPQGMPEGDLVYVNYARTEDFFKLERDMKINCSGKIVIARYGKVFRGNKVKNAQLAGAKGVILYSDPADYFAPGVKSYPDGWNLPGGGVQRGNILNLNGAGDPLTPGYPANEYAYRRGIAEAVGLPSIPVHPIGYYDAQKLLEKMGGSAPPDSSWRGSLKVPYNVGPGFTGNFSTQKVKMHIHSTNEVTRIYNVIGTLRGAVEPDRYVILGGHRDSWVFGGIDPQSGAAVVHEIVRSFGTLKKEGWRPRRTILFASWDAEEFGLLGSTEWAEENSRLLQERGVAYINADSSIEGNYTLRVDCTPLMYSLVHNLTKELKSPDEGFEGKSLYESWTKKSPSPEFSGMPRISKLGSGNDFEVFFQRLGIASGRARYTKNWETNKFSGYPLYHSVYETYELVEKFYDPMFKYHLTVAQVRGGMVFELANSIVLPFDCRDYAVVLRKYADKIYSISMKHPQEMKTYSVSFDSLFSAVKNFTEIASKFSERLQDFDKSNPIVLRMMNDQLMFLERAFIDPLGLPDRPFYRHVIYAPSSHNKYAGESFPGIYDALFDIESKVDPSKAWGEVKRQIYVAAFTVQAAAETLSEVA
T4 sequence (P55899 24-297 limits assumed, chain 1 of 2): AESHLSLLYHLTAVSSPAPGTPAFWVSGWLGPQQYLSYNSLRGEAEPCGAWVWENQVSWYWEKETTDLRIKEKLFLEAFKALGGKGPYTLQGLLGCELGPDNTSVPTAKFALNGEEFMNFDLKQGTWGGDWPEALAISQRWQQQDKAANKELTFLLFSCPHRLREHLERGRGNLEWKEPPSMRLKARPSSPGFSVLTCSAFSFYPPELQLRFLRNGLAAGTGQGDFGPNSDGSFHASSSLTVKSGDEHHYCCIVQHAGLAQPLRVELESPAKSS
T4 sequence (P61769 21-119 limits assumed, chain 2 of 2, further chain): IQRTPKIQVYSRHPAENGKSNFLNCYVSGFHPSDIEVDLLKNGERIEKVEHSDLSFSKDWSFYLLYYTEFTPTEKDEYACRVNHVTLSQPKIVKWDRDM

B1: Z10109-ABD fusion (designed binder)
chain: AQHDEALEVDAKYAKEANTAAHEIRWLPNLTFDQRVAFIRKLWDDPSQSSELLSEAKKLNDSQAPKVDYVLAEAKVLANRELDKYGVSDYYKNLINNAKTVEGVKALIDEILAALPYVPG
notes: domain: GA3; periplasmic Z-ABD fusion
binding result [1]: no binding (tested: 2 µg/ml)
Kd [2]: 23.9 nM

B2: Z10183-ABD fusion (designed binder)
chain: AQHDEALEVDAKYAKEADNAGHEIRWLPNLTWAQRWAFIHKLLDDPSQSSELLSEAKKLNDSQAPKVDYVLAEAKVLANRELDKYGVSDYYKNLINNAKTVEGVKALIDEILAALPYVPG
notes: as for B1
Kd [3]: 10.9 nM
binding result [1]: no binding (tested: 2 µg/ml)

B3: Z10161-ABD fusion (designed binder)
chain: AQHDEALEVDAKYAKESGYAVHEIRWLPNLTFDQRVAFINKLQDDPSQSSELLSEAKKLNDSQAPKVDYVLAEAKVLANRELDKYGVSDYYKNLINNAKTVEGVKALIDEILAALPYVPG
notes: as for B1
Kd [3]: 163 nM
binding result [1]: no binding (tested: 2 µg/ml)

B4: Z11948-PP013-Z03638 (designed binder)
chain: AEAKYAKEQDAAAHEIRWLPNLTFDQRVAFIHKLADDPSQSSELLSEAKKLNDSQAPKGAPGGGGSGGGGSGGGGSGGGGSTSLAEAKEAANAELDSYGVSDFYKRLIDKAKTVEGVEALKDAILAALPGTGGGGSGGGGSGGGGSGGGGSPRAEAKYAKELGWATWEIFNLPNLTGVQVKAFIDKLRDDPSQSSELLSEAKKLNDSQAPK
notes: also called Z11948 in fusion with PP013-Z03638
Kd [4]: 62 nM
koff [4]: 0.047 s⁻¹
kon [4]: 773000 M⁻¹ s⁻¹

B5: Z11947-PP013-Z03638 (designed binder)
chain: AEAKYAKEWMRAAHEIRWLPNLTFDQRVAFIHKLEDDPSQSSELLSEAKKLNDSQAPKGAPGGGGSGGGGSGGGGSGGGGSTSLAEAKEAANAELDSYGVSDFYKRLIDKAKTVEGVEALKDAILAALPGTGGGGSGGGGSGGGGSGGGGSPRAEAKYAKELGWATWEIFNLPNLTGVQVKAFIDKLRDDPSQSSELLSEAKKLNDSQAPK
notes: also called Z11947 in fusion with PP013-Z03638
Kd [4]: 98 nM
koff [4]: 0.064 s⁻¹
kon [4]: 654000 M⁻¹ s⁻¹

B6: Z11946-PP013-Z03638 (designed binder)
chain: AEAKYAKEFESAAHEIRWLPNLTYDQRVAFIHKLSDDPSQSSELLSEAKKLNDSQAPKGAPGGGGSGGGGSGGGGSGGGGSTSLAEAKEAANAELDSYGVSDFYKRLIDKAKTVEGVEALKDAILAALPGTGGGGSGGGGSGGGGSGGGGSPRAEAKYAKELGWATWEIFNLPNLTGVQVKAFIDKLRDDPSQSSELLSEAKKLNDSQAPK
notes: also called Z11946 in fusion with PP013-Z03638
Kd [4]: 820 nM
koff [4]: 0.275 s⁻¹
kon [4]: 335000 M⁻¹ s⁻¹

B7: His6-tagged Z07918 (designed binder)
chain: MGSSHHHHHHLQVDAKYAKEQDAAAHEIRWLPNLTFDQRVAFIHKLADDPSQSSELLSEAKKLNDSQAPKVD
notes: also called His6-Z07918
Kd [5]: 90 nM
Kd [6]: 16 nM
Kd [7]: > 500 nM

B8: His6-tagged Z07960 (designed binder)
chain: MGSSHHHHHHLQVDAKYAKEFESAAHEIRWLPNLTYDQRVAFIHKLSDDPSQSSELLSEAKKLNDSQAPKVD
IC50 [8]: 42 nM
Kd [5]: 350 nM
Kd [7]: > 5000 nM

B9: His6-tagged Z13577 (designed binder)
chain: MGSSHHHHHHLQVDAKYAKEWHQAAHEIRWLPNLTFDQRVAFIHKLRDDPSQSSELLSEAKKLNDSQAPKVD
IC50 [8]: 12 nM
Kd [9]: 13 nM
koff [9]: 0.004 s⁻¹
kon [9]: 300000 M⁻¹ s⁻¹

B10: His6-tagged Z10161 (designed binder)
chain: MGSSHHHHHHLQVDAKYAKESGYAVHEIRWLPNLTFDQRVAFINKLQDDPSQSSELLSEAKKLNDSQAPKVD
binding result [10]: binds

B11: His6-tagged Z10152 (designed binder)
chain: MGSSHHHHHHLQVDAKYAKEEDVAAHEIRWLPNLTFNQRAAFIDKLLDDPSQSSELLSEAKKLNDSQAPKVD
binding result [10]: binds

B12: His6-tagged Z10140 (designed binder)
chain: MGSSHHHHHHLQVDAKYAKERSAAAHEIRWLPNLTFDQRVAFILKLTDDPSQSSELLSEAKKLNDSQAPKVD
IC50 [8]: 56 nM
Kd [6]: 86 nM
koff [6]: 0.12 s⁻¹
kon [6]: 1.4e+06 M⁻¹ s⁻¹

B13: His6-tagged Z10127 (designed binder)
chain: MGSSHHHHHHLQVDAKYAKERKDAGHEIRWLPNLTFDQRSAFIKKLEDDPSQSSELLSEAKKLNDSQAPKVD
binding result [10]: binds

B14: His6-tagged Z10129 (designed binder)
chain: MGSSHHHHHHLQVDAKYAKEQHDAAHEIRWLPNLTYDQRVAFIRKLHDDPSQSSELLSEAKKLNDSQAPKVD
binding result [10]: binds

B15: His6-tagged Z10145 (designed binder)
chain: MGSSHHHHHHLQVDAKYAKENQDAAHEIRWLPNLTYDQRVAFIGKLNDDPSQSSELLSEAKKLNDSQAPKVD
binding result [10]: binds

B16: His6-tagged Z10193 (designed binder)
chain: MGSSHHHHHHLQVDAKYAKEWMRAAHEIRWLPNLTFDQRVAFIHKLEDDPSQSSELLSEAKKLNDSQAPKVD
IC50 [8]: 12 nM
Kd [5]: 95 nM
Kd [6]: 22 nM
Kd [7]: > 500 nM

B17: His6-tagged Z10141 (designed binder)
chain: MGSSHHHHHHLQVDAKYAKENQGAAHEIRWLPNLTWDQRVAFIRKLQDDPSQSSELLSEAKKLNDSQAPKVD
binding result [10]: binds

B18: His6-tagged Z10183 (designed binder)
chain: MGSSHHHHHHLQVDAKYAKEADNAGHEIRWLPNLTWAQRWAFIHKLLDDPSQSSELLSEAKKLNDSQAPKVD
IC50 [8]: 39 nM
Kd [6]: 130 nM
koff [6]: 0.13 s⁻¹
kon [6]: 1e+06 M⁻¹ s⁻¹

B19: His6-tagged Z10156 (designed binder)
chain: MGSSHHHHHHLQVDAKYAKERTQASHEIRWLPNLTYDQRVAFINKLRDDPSQSSELLSEAKKLNDSQAPKVD
Kd [6]: 370 nM
koff [6]: 0.28 s⁻¹
kon [6]: 760000 M⁻¹ s⁻¹

B20: His6-tagged Z13621 (designed binder)
chain: MGSSHHHHHHLQVDAKYAKEADAAGHEIRWLPNLTFDQRVAFIHKLRDDPSQSSELLSEAKKLNDSQAPKVD
IC50 [8]: 3.2 nM
Kd [9]: 6 nM
koff [9]: 0.0037 s⁻¹
kon [9]: 640000 M⁻¹ s⁻¹

Reference: patent US20160031967A1 (Affibody, published 2016)
